The supplement of paper PMC12217912
Some of the results follow. The full chains were built here from the parent and the listed change. Inactive controls read about 0.05.

B1: TEV protease; numbered along this chain (parent)
chain: MGESLFKGPRDYNPISSSICHLTNESDGHTTSLYGIGFGPFIITNKHLFRRNNGTLVVQSLHGVFKVKDTTTLQQHLVDGRDMIIIRMPKDFPPFPQKLKFREPQREERICLVTTNFQTKSMSSMVSDTSCTFPSGDGIFWKHWIQTKDGQCGSPLVSTRDGFIVGIHSASNFTNTNNYFTSVPKNFMELLTNQEAQQWVSGWRLNADSVLWGGHKVFMVKPEEPFQPVKEATQL

Variants of: B1
Test: raw area under fraction-flipped curve 0-4 h after induction (AUC4h, not background-subtracted), DNA-recorder readout of cleavage of the substrate (dimensionless); higher = more cleavage of the substrate by the protease variant
Details: temperature: 34 °C; time window: 0-4 h after rhamnose induction
Method: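 In vivo DNA recorder in E. coli TOP10(DE3) ΔrhaA at 34 °C. Each TEVp single-site mutant (parent TEVp 0) is paired with a single-site variant of the 7-mer TEVs (canonical ENLYFQ|S). The substrate sits between flexible linkers in a Bxb1-sfGFP-TEVs-SsrA fusion, so cleavage stabilises Bxb1 and speeds flipping of a recombination array, read by NGS. The value is the raw area under the fraction-flipped curve over 0-4 h after rhamnose induction (AUC4h), with ≥20 reads per time point. It is not background-subtracted; inactive controls average about 0.047.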
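Also: Bxb1 expression induced with 0.2% (w/v) L-rhamnose at OD600 near 0.5, cultures sampled hourly, flipped fraction per protease–substrate barcode pair counted by paired-end Illumina sequencing.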

Variant	area with substrate ENLYFQA	area with substrate ENLYFQC	area with substrate ENLYFQF	area with substrate ENLYFQL	area with substrate ENLYFQM	area with substrate ENLYFQN	area with substrate ENLYFQR	area with substrate ENLYFQS	area with substrate ENLYFQW	area with substrate ENLYFQD	area with substrate ENLYFQH	area with substrate ENLYFQI	area with substrate ENLYFQK	area with substrate ENLYFQT	area with substrate ENLYFQG	area with substrate ENLYFQV	area with substrate ENLYFQY	area with substrate ENLYFQQ	area with substrate ENLYFQP	area with substrate ENLYFQE
MGESLFKGPRDYNPISSSICHLTNESDGHTTSLYGIGFGPFIITNKHLFRRNNGTLVVQSLHGVFKVKDTTTLQQHLVDGRDMIIIRTPKDFPPFPQKLKFREPQREERICLVTTNFQTKSMSSMVSDTSCTFPSGDGIFWKHWIQTKDGQCGSPLVSTRDGFIVGIHSASNFTNTNNYFTSVPKNFMELLTNQEAQQWVSGWRLNADSVLWGGHKVFMVKPEEPFQPVKEATQL [M88T]	0.115	0.0937	0.0738	0.0674	0.0926	0.09	0.0497	0.093	0.0647											
MGESLFKGPRDYNPISSSICHLTNESDGHTTSLYGIGFGPFIITNKHLFRRNNGTLVVQSLHGVFKVKDTTTLQQHLVDGHDMIIIRMPKDFPPFPQKLKFREPQREERICLVTTNFQTKSMSSMVSDTSCTFPSGDGIFWKHWIQTKDGQCGSPLVSTRDGFIVGIHSASNFTNTNNYFTSVPKNFMELLTNQEAQQWVSGWRLNADSVLWGGHKVFMVKPEEPFQPVKEATQL [R81H]	0.103	0.0965	0.0653	0.0541	0.0737		0.0676	0.0909	0.0632	0.0672	0.0793	0.0575	0.0599	0.0581						
MGESLFKGPRDYNPISSSICHLTNESDGHTTSLYGIGFGMFIITNKHLFRRNNGTLVVQSLHGVFKVKDTTTLQQHLVDGRDMIIIRMPKDFPPFPQKLKFREPQREERICLVTTNFQTKSMSSMVSDTSCTFPSGDGIFWKHWIQTKDGQCGSPLVSTRDGFIVGIHSASNFTNTNNYFTSVPKNFMELLTNQEAQQWVSGWRLNADSVLWGGHKVFMVKPEEPFQPVKEATQL [P40M]	0.114	0.113		0.0508	0.107	0.0804	0.0564	0.106		0.0663		0.055	0.0743	0.0681	0.0945	0.0545	0.106			
MGESLFKGPRDYNPISSSICHLTNESDGHTTSLYGIGFGPFIITNKHLFRRNNGTLVVQSLHGVFKVKDTTTLQQHLVDGRDMIIIRMPKDFPPFPQKLKFREPQREERICGVTTNFQTKSMSSMVSDTSCTFPSGDGIFWKHWIQTKDGQCGSPLVSTRDGFIVGIHSASNFTNTNNYFTSVPKNFMELLTNQEAQQWVSGWRLNADSVLWGGHKVFMVKPEEPFQPVKEATQL [L112G]	0.0603	0.0725		0.0532	0.0645		0.0578	0.0676			0.0632	0.0618	0.0781	0.0567	0.059	0.0576		0.0582		
MGESLFKGPRDYNPISSSICHLTNESDGHTTSLYGIGFGPFIITNKHLFRRNNGTLVVQSLHGVFKVKDTTTLQQHLVDGRDMIIIRMPKDFPPFPQKLKFREPQREERICLVTTNFQTKSMSSMVSDTSCTFPSGDGIFWKHWIQTKDGQCGSQLVSTRDGFIVGIHSASNFTNTNNYFTSVPKNFMELLTNQEAQQWVSGWRLNADSVLWGGHKVFMVKPEEPFQPVKEATQL [P155Q]	0.061	0.045	0.0488	0.0517	0.0617	0.0487	0.0527	0.0533	0.0338	0.051	0.0357	0.0477	0.0457	0.0479	0.0803	0.056	0.0558		0.054	
MGESLFKGPRDYNPISSSICHLTNESDGHTTSLYGIGFGPFIITNKHLFRRNNGTLVVQSLHGVFKVKDTTTLQQHLVDGRDMIIIRMPKDFPPFPQKLKFREPQREERICLVTTNFQTKSMSSMVSDTSCTFPSGDGIFWKHWIQTKDGQCGSPLVSTRDGFIVGIHSASNFTNTNNYFTSVPKNFMELLTNQEAQQWVSGWRLNAWSVLWGGHKVFMVKPEEPFQPVKEATQL [D208W]	0.0538	0.0631		0.0563	0.0597	0.0597	0.0562	0.0677	0.0617	0.0691	0.066	0.0641	0.0658	0.114	0.109	0.0628	0.064			
MGESLFKGPRDYNPISSSICHLTNESDGHTTSLYGIGFGPFIITNKHLFRRNNGTLVVQSLHGVFKVKDTTTLQQHLVDGRDMIIIRMPKDFPPFPQKLKFREPQREERICLVTTNFQTKSMSSMVSDTSCTFPSGDGIFWKHWIQTKDGQCGSPLVSTRDGFIVGIHSASNFTNTNNYFTSKPKNFMELLTNQEAQQWVSGWRLNADSVLWGGHKVFMVKPEEPFQPVKEATQL [V183K]	0.0428	0.0685	0.0446	0.0384	0.0596	0.0593	0.057	0.0549	0.0571	0.0594		0.0527	0.0552	0.047	0.0556	0.024			0.0606	
MGESLFKGPRDYNPISSSICELTNESDGHTTSLYGIGFGPFIITNKHLFRRNNGTLVVQSLHGVFKVKDTTTLQQHLVDGRDMIIIRMPKDFPPFPQKLKFREPQREERICLVTTNFQTKSMSSMVSDTSCTFPSGDGIFWKHWIQTKDGQCGSPLVSTRDGFIVGIHSASNFTNTNNYFTSVPKNFMELLTNQEAQQWVSGWRLNADSVLWGGHKVFMVKPEEPFQPVKEATQL [H21E]	0.0098	0.0907	0.0861	0.0575	0.0797	0.0688	0.0527	0.0858	0.0613			0.0586	0.0615	0.0619	0.101	0.0625	0.0656	0.0768	0.0584	0.0888
MGESLFKGPRDYNPISSSICTLTNESDGHTTSLYGIGFGPFIITNKHLFRRNNGTLVVQSLHGVFKVKDTTTLQQHLVDGRDMIIIRMPKDFPPFPQKLKFREPQREERICLVTTNFQTKSMSSMVSDTSCTFPSGDGIFWKHWIQTKDGQCGSPLVSTRDGFIVGIHSASNFTNTNNYFTSVPKNFMELLTNQEAQQWVSGWRLNADSVLWGGHKVFMVKPEEPFQPVKEATQL [H21T]	0.0713	0.0934		0.061	0.0904	0.0734	0.04	0.0919	0.0664		0.0834	0.0689	0.061	0.0602	0.0943	0.0573	0.0633			
